# Results published in the supplement of paper PMC8728848.
# This is one part of the list.
# B1: MIC1 (Toxoplasma gondii), O00834 (protein)
# chain: MGQALFLTVLLPVLFGVGPEAYGEASHSHSPASGRYIQQMLDQRCQEIAAELCQSGLRKMCVPSSRIVARNAVGITHQNTLQWRCFDTASLLESNQENNGVNCVDDCGHTIPCPGGVHRQNSNHATRHEILSKLVEEGVQRFCSPYQASANKYCNDKFPGTIARRSKGFGNNVEVAWRCYEKASLLYSVYAECASNCGTTWYCPGGRRGTSTELDKRHYTEEEGIRQAIGSVDSPCSEVEVCLPKDENPPLCLDESGQISRTGGGPPSQPPEMQQPADRSDERGGGKEQSPGGEAQPDHPTKGGNIDLPEKSTSPEKTPKTEIHGDSTKATLEEGQQLTLTFISTKLDVAVGSCHSLVANFLDGFLKFQTGSNSAFDVVEVEEPAGPAVLTIGLGHKGRLAVVLDYTRLNAALGSAAYVVEDSGCSSSEEVSFQGVGSGATLVVTTLGESPTAVSA
# Legend:
# Assay in all cases: glycan array binding signal (z-score within array); higher = stronger binding
# Settings in all cases: glycan notation: IUPAC condensed, linker removed
# [1] = target: GlcNAc(b1-3)[GlcNAc(b1-6)]GalNAc
# Method in brief: (§1)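 The Consortium for Functional Glycomics database supplied 3228 glycan arrays, of which those lacking an available protein sequence were dropped. The binding signal, a within-array Z-score, was averaged across arrays of the same protein sequence and across linkers. Negative scores can be read as non-binding.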
# [2] = target: GlcNAc(b1-4)Gal(b1-4)GlcNAc
# Method in brief: as §1
# GlcNAc(b1-4)GlcNAc = target: GlcNAc(b1-4)GlcNAc
# Method in brief: as §1
# [3] = target: GlcNAc(b1-4)GlcNAc(b1-4)GlcNAc
# Method in brief: as §1
# [4] = target: GlcNAc(b1-4)GlcNAc(b1-4)GlcNAc(b1-4)GlcNAc(b1-4)GlcNAc
# Method in brief: as §1
# [5] = target: GlcNAc(b1-4)GlcNAc(b1-4)GlcNAc(b1-4)GlcNAc(b1-4)GlcNAc(b1-4)GlcNAc
# Method in brief: as §1
# [6] = target: GlcNAc(b1-4)[GlcNAc(b1-6)]GalNAc
# Method in brief: as §1
# [7] = target: GlcNAc(b1-6)Gal(b1-4)GlcNAc
# Method in brief: as §1
# GlcNAc(b1-6)GalNAc = target: GlcNAc(b1-6)GalNAc
# Method in brief: as §1
# GlcNAc3Prop(b1-4)GlcNAc = target: GlcNAc3Prop(b1-4)GlcNAc
# Method in brief: as §1
# Kdn(a2-3)Gal(b1-3)GlcNAc = target: Kdn(a2-3)Gal(b1-3)GlcNAc
# Method in brief: as §1
# Kdn(a2-3)Gal(b1-4)GlcNAc = target: Kdn(a2-3)Gal(b1-4)GlcNAc
# Method in brief: as §1
# [8] = target: Man(a1-2)Man(a1-2)Man(a1-3)Man
# Method in brief: as §1
# [9] = target: Man(a1-2)Man(a1-2)Man(a1-6)[Man(a1-3)]Man
# Method in brief: as §1
# Man(a1-2)Man(a1-3)Man = target: Man(a1-2)Man(a1-3)Man
# Method in brief: as §1
# [10] = target: Man(a1-2)Man(a1-3)[Man(a1-2)Man(a1-6)]Man
# Method in brief: as §1
# [11] = target: Man(a1-2)Man(a1-3)[Man(a1-2)Man(a1-6)]Man(a1-6)[Man(a1-2)Man(a1-2)Man(a1-3)]Man
# Method in brief: as §1
# [12] = target: Man(a1-2)Man(a1-3)[Man(a1-2)Man(a1-6)]Man(a1-6)[Man(a1-2)Man(a1-2)Man(a1-3)]Man(b1-4)GlcNAc(b1-4)GlcNAc
# Method in brief: as §1
# [13] = target: Man(a1-2)Man(a1-3)[Man(a1-6)]Man(a1-6)[Man(a1-2)Man(a1-3)]Man(b1-4)GlcNAc(b1-4)GlcNAc
# Method in brief: as §1
# [14] = target: Man(a1-2)Man(a1-6)[Man(a1-3)]Man(a1-6)[Man(a1-2)Man(a1-2)Man(a1-3)]Man
# Method in brief: as §1
# [15] = target: Man(a1-2)Man(a1-6)[Man(a1-3)]Man(a1-6)[Man(a1-2)Man(a1-2)Man(a1-3)]Man(b1-4)GlcNAc(b1-4)GlcNAc
# Method in brief: as §1
# Man(a1-3)[Man(a1-6)]Man = target: Man(a1-3)[Man(a1-6)]Man
# Method in brief: as §1
# [16] = target: Man(a1-3)[Man(a1-6)]Man(a1-6)[Man(a1-2)Man(a1-3)]Man(b1-4)GlcNAc(b1-4)GlcNAc
# Method in brief: as §1
# [17] = target: Man(a1-3)[Man(a1-6)]Man(a1-6)[Man(a1-3)]Man
# Method in brief: as §1
# [18] = target: Man(a1-3)[Man(a1-6)]Man(a1-6)[Man(a1-3)]Man(b1-4)GlcNAc(b1-4)GlcNAc
# Method in brief: as §1
# [19] = target: Man(a1-3)[Man(a1-6)]Man(b1-4)GlcNAc(b1-4)GlcNAc
# Method in brief: as §1
# Man(a1-6)Man = target: Man(a1-6)Man
# Method in brief: as §1
# Man(b1-4)GlcNAc = target: Man(b1-4)GlcNAc
# Method in brief: as §1
# Neu5Ac(a2-3)Gal = target: Neu5Ac(a2-3)Gal
# Method in brief: as §1
# [20] = target: Neu5Ac(a2-3)Gal(b1-3)GalNAc
# Method in brief: as §1
# [21] = target: Neu5Ac(a2-3)Gal(b1-3)GalNAc(b1-3)Gal(a1-4)Gal(b1-4)Glc
# Method in brief: as §1
# [22] = target: Neu5Ac(a2-3)Gal(b1-3)GalNAc(b1-3)Gal(b1-4)GlcNAc
# Method in brief: as §1
# [23] = target: Neu5Ac(a2-3)Gal(b1-3)GalNAc(b1-4)[Neu5Ac(a2-3)]Gal(b1-4)Glc
# Method in brief: as §1
# [24] = target: Neu5Ac(a2-3)Gal(b1-3)GalNAc6S
# Method in brief: as §1
# [25] = target: Neu5Ac(a2-3)Gal(b1-3)GlcNAc
# Method in brief: as §1
# [26] = target: Neu5Ac(a2-3)Gal(b1-3)GlcNAc(b1-3)Gal(b1-3)GlcNAc
# Method in brief: as §1
# [27] = target: Neu5Ac(a2-3)Gal(b1-3)GlcNAc6S
# Method in brief: as §1
# [28] = target: Neu5Ac(a2-3)Gal(b1-3)[Fuc(a1-4)]GlcNAc
# Method in brief: as §1
binder,measurement,setting,value
B1,glycan array binding signal (z-score),[1],0.019
same,glycan array binding signal (z-score),[2],-0.098
same,glycan array binding signal (z-score),GlcNAc(b1-4)GlcNAc,-0.252
same,glycan array binding signal (z-score),[3],-0.298
same,glycan array binding signal (z-score),[4],-0.267
same,glycan array binding signal (z-score),[5],-0.077
same,glycan array binding signal (z-score),[6],-0.126
same,glycan array binding signal (z-score),[7],0.12
same,glycan array binding signal (z-score),GlcNAc(b1-6)GalNAc,-0.41
same,glycan array binding signal (z-score),GlcNAc3Prop(b1-4)GlcNAc,-0.196
same,glycan array binding signal (z-score),Kdn(a2-3)Gal(b1-3)GlcNAc,-0.158
same,glycan array binding signal (z-score),Kdn(a2-3)Gal(b1-4)GlcNAc,-0.256
same,glycan array binding signal (z-score),[8],-0.194
same,glycan array binding signal (z-score),[9],-0.25
same,glycan array binding signal (z-score),Man(a1-2)Man(a1-3)Man,-0.118
same,glycan array binding signal (z-score),[10],-0.155
same,glycan array binding signal (z-score),[11],-0.307
same,glycan array binding signal (z-score),[12],-0.159
same,glycan array binding signal (z-score),[13],-0.312
same,glycan array binding signal (z-score),[14],-0.127
same,glycan array binding signal (z-score),[15],-0.186
same,glycan array binding signal (z-score),Man(a1-3)[Man(a1-6)]Man,-0.253
same,glycan array binding signal (z-score),[16],0.018
same,glycan array binding signal (z-score),[17],-0.2
same,glycan array binding signal (z-score),[18],-0.244
same,glycan array binding signal (z-score),[19],-0.289
same,glycan array binding signal (z-score),Man(a1-6)Man,-0.154
same,glycan array binding signal (z-score),Man(b1-4)GlcNAc,-0.1
same,glycan array binding signal (z-score),Neu5Ac(a2-3)Gal,-0.068
same,glycan array binding signal (z-score),[20],-0.13
same,glycan array binding signal (z-score),[21],-0.265
same,glycan array binding signal (z-score),[22],-0.358
same,glycan array binding signal (z-score),[23],-0.19
same,glycan array binding signal (z-score),[24],-0.097
same,glycan array binding signal (z-score),[25],-0.262
same,glycan array binding signal (z-score),[26],-0.175
same,glycan array binding signal (z-score),[27],0.131
same,glycan array binding signal (z-score),[28],-0.235
